This test has as its target USF-1 overexpressed in 293FT cells (UniProt P22415). The experiment in a line: co-IP; 293FT cells overexpressing Flag-tagged JMJD1C constructs and USF-1; IP with USF-1 antibody, immunoblot with anti-JMJD1C antibody.

Amino acid sequences for entries named in this document (tags omitted).
UniProt P22415: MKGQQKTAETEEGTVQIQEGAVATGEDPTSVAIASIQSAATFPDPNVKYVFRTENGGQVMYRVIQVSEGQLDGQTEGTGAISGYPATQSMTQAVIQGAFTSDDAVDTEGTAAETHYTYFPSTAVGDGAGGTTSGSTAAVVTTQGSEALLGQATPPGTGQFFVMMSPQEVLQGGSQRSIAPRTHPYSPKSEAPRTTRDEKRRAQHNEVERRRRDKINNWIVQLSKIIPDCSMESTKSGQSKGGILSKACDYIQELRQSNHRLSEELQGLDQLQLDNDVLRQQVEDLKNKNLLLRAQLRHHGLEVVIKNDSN

These are yes or no findings as the source states them, for the method shown. In cells and extracts the contact can be indirect. Some results given as binding are weak or reduced against the parent protein; the word gives no strength. Where a sequence is shown, tags or fusion partners need not be part of it.

Drawing on paper PMC7005700, this text covers binding for one molecule.

B1: Flag-tagged JMJD1C (1-619) (domain or fragment, UniProt Q15652 1-619)
chain: MAVETRAELVGKRFLCVAVGDEARSERWESGRGWRSWRAGVIRAVSHRDSRNPDLAVYVEFDDLEWDKREWVKVYEDFSTFLVEYHLIWAKRNDPSQTQGSKSKQIQWPALTFKPLVERNIPSSVTAVEFLVDKQLDFLTEDSAFQPYQDDIDSLNPVLRDNPQLHEEVKVWVKEQKVQEIFMQGPYSLNGYRVRVYRQDSATQWFTGIITHHDLFTRTMIVMNDQVLEPQNVDPSMVQMTFLDDVVHSLLKGENIGITSRRRSRANQNVNAVHSHYTRAQANSPRPAMNSQAAVPKQNTHQQQQQRSIRPNKRKGSDSSIPDEEKMKEEKYDYISRGENPKGKNKHLMNKRRKPEEDEKKLNMKRLRTDNVSDFSESSDSENSNKRIIDNSSEQKPENELKNKNTSKINGEEGKPHNNEKAGEETLKNSQPPWDQIQEDKKHEEAEKRKSVDTQLQEDMIIHSSEQSTVSDHNSNDLLPQECNMDKTHTMELLPKEKFVSRPPTPKCVIDITNDTNLEKVAQENSSTFGLQTLQKMDPNVSDSKHSIANAKFLETAKKDSDQSWVSDVVKVDLTQSSVTNASSGNDHLNMEKEKYVSYISPLSAVSVMEDKLHKRSPP
Take B1: the binding result is listed as “binds”.
